Survival data for 90 compounds are collected here from PubChem BioAssay AID463173 (ICCB-Longwood Screening Facility, Harvard Medical School, 2010).

In all, about 52,000 compounds went through this assay and about 4,300 (8.3%) were called active. No stated cut-off is given here; in the data, active means survival mostly below about 52% (no sharp cut-off); inactive means mostly above about 56%. The list shows a part of the results.

For this assay, the system named is DeltatarO mutant. Briefly: S. aureus survival, RN4220 and DeltatarO strains – OD600, teichoic acid synthesis inhibitors, primary screen (AID 463173). As to conditions: S. aureus RN4220 wild type/DeltatarO growth, OD600, 18 h, active compounds read low, screened at 18.75 µg/mL (by protocol).
For `CC(CN1CCOCC1)OC(=O)C(C)(c1ccccc1)c1ccccc1` (stereo not given), the survival was inactive: 69%.

Take `CCN(CC)S(=O)(=O)c1cc(-c2nnc(Nc3ccc(OC)c(C(N)=O)c3)c3ccccc23)ccc1C`: the survival was inactive: 55%.

With `Cc1ccc(Nc2c(-c3cc(Br)ccc3F)nc3cc(C)ccn23)cc1`, the survival was active: 32%.

Turning to `CN(CC(=O)Nc1ccc(Cl)cc1)C1CCCCC1`, the survival is inactive: 110%.

As to `Cc1ccc(NC(=O)c2cccc(N3CCCS3(=O)=O)c2)cc1`, the survival was inactive: 78%.

As for `COc1ccccc1NC(=O)Cn1c(=O)n(-c2ccc(C)cc2)c(=O)c2ccc(C(=O)NCc3ccco3)cc21`, the survival is inactive: 79%.

With `Cc1ccc(S(=O)(=O)Cn2nnnc2CN2CCC(Cc3ccccc3)CC2)cc1`, the survival was inactive: 100%.

`CCOc1ccc(NC(=O)N2CCC(CN3CCc4ccccc4C3)CC2)cc1`: the survival is active: -1%.

Regarding `COc1ccccc1N1CCN(c2ccc(=O)n(CC(=O)Nc3ccc(F)c(F)c3)n2)CC1`, the survival is inactive: 80%.

As to `O=C(NCc1cccnc1)c1nn(-c2ccccc2F)nc1CO`, the survival was inactive: 94%.

In the case of `Cc1ccc(N(C(=O)COc2ccccc2C)S(=O)(=O)c2ccc(Cl)cc2)cc1`, the survival is inactive: 67%.

In the case of `O=C(CCn1c(=O)c2cccn2c2ccc(F)cc21)NCCc1ccccc1`, the survival was active: 42%.

In the case of `C/C(Cc1nc2ccccc2[nH]1)=N/Nc1ccccc1`, the survival was active: 2%.

Consider `CCCc1cc(C(=O)Nc2c(C)nn(Cc3ccc(C)cc3)c2C)no1`, for which the survival was inactive: 73%.

In the case of `Cc1ccc(C)c(Nc2cc(C(=O)NC3CCCCC3)c3ccccc3n2)c1`, the survival is inactive: 87%.

For `CCC(=O)N1CCc2cc(CNC(=O)C(CC)c3ccccc3)ccc21` (stereo not given), the survival is inactive: 92%.

Regarding `COC(=O)c1ccc(Cl)cc1NC(=O)NCc1c(-n2cccc2)sc2c1CCCC2`, the survival was inactive: 78%.

Regarding `CCOc1ccc(C(=O)Nc2ccc(C(=O)OCc3cc(=O)n4ccsc4n3)cc2)cc1`, the survival was inactive: 94%.

With `CCOC(=O)c1ccc(NC(=O)c2csc3c2CCCC3)cc1`, the survival was active: 36%.

As to `O=C(Nc1cccc2cccnc12)c1cccc2ccccc12`, the survival was active: 1%.

Consider `COc1cccc(N2CCN(C(=O)c3cc4c(=O)n(Cc5cccs5)ccc4nc3C)CC2)c1`, for which the survival was inactive: 69%.

In the case of `Cc1ccc(CNC(=O)Cn2ncc3c([nH]c4ccc(C)cc43)c2=O)cc1`, the survival was inactive: 88%.

With `Fc1ccc(N=C(CN2CCCCC2)N2CCCCC2)cc1`, the survival is inactive: 80%.

Take `CCn1c(CN2CCCCC2)nc2cc(NC(=O)c3ccccc3[N+](=O)[O-])ccc21`: the survival is inactive: 91%.

As to `CSc1ncc(C(=O)NCc2ccc(Cl)cc2)c(C(F)(F)F)n1`, the survival is inactive: 102%.

As for `Cc1nn(-c2ccccc2)c(OC(=O)c2ccc(F)cc2)c1S(=O)(=O)c1ccccc1`, the survival is inactive: 80%.

With `Cc1ccc(NC(=O)c2c(C(=O)Nc3ccccc3)sc3nc(C)cc(=O)n23)c(C)c1`, the survival is inactive: 52%.

On to `CCN(C(=O)CCNC(=O)Cn1cnc2ccccc2c1=O)c1cccc(Cl)c1`, for which the survival was inactive: 67%.

For `COc1ccc(C2=C(C)C(N3CCC(C(=O)Nc4cc(C)ccc4C)CC3)=NS2(=O)=O)cc1`, the survival is inactive: 79%.

For the compound `CCCn1cc(S(=O)(=O)c2ccc(C)cc2)c(=O)c2cc(OC)c(OC)cc21`, the survival was inactive: 81%.

Turning to `COc1cccc(NC(=O)C(=O)NCCc2csc(-c3ccc(C)cc3)n2)c1`, the survival is inactive: 89%.

Regarding `COc1ccc(N2CCN(S(=O)(=O)CCNC(=O)COc3cccc(OC)c3)CC2)cc1`, the survival was inactive: 90%.

Turning to `CCCSc1ncc(Cl)c(C(=O)Nc2c(C(=O)Nc3ccccc3)oc3ccccc23)n1`, the survival was inactive: 61%.

Take `Cc1cccc(Cn2c(SCc3ccc(C(=O)N4CCC(C)CC4)cc3)nc3ccncc32)c1`: the survival is inactive: 55%.

`N#CCSc1cccc2cccnc12`: the survival was inactive: 83%.

On to `CCn1c(CC(=O)Nc2ccccc2)n[nH]c1=S`, for which the survival was inactive: 80%.

As to `COc1ccc(CCNC(=O)c2ccc(-n3c(C)cc4c3CCCC4)cc2)cc1OC`, the survival is inactive: 74%.

`CCCc1cc(=O)[nH]c(SCc2nc(-c3ccc(C)cc3)no2)n1`: the survival was inactive: 78%.

In the case of `COc1ccccc1CCNC(=O)Cc1c(C)c2cc3c(C(C)(C)C)coc3c(C)c2oc1=O`, the survival is inactive: 101%.

In the case of `Nc1cc(N)nc(SCc2noc(-c3ccc(Cl)cc3)n2)n1`, the survival was inactive: 86%.

With `CC1Oc2ccccc2N(CC(=O)Nc2ccccc2F)C1=O` (stereo not given), the survival was inactive: 110%.

With `Cc1cccc(NC(=O)Cn2cnc(S(=O)(=O)N3CCCC3)c2)c1C`, the survival is inactive: 71%.

As for `Cc1cc(C)c2c(n1)nn1c(C)c(CCC(=O)NCc3ccccc3Cl)c(C)nc21`, the survival is inactive: 82%.

Turning to `CCOc1ccc(-c2cc3nc(C4CCN(C(=O)OC(C)(C)C)CC4)c(C(=O)Nc4ccc(C)cc4Cl)cn3n2)cc1`, the survival was inactive: 71%.

In the case of `O=S(=O)(c1ccc(Br)cc1)c1nnn2c1nc(Nc1cccc(C(F)(F)F)c1)c1sccc12`, the survival is inactive: 74%.

As for `CN1CCSc2ccc(C(=O)NCc3ccccc3F)cc21`, the survival is inactive: 134%.

With `CCC1CCCCN1C(=O)/C=C/c1ccccc1Cl` (stereo not given), the survival is inactive: 89%.

On to `O=C(OCC1CCCO1)c1ccc2c(c1)N(Cc1cccc(Cl)c1)C(=O)c1ccccc1S2(=O)=O` (stereo not given), for which the survival is inactive: 70%.

Consider `Cc1ccc(NC(=O)NCCOCCn2c(=O)oc3ccccc32)cc1F`, for which the survival was inactive: 89%.

Consider `O=C(Nc1nnc(N2CCCCCC2)s1)Nc1ccccc1C(F)(F)F`, for which the survival was inactive: 80%.

In the case of `CCC(Sc1nc2ccccc2c2nc(CCc3c(C)n[nH]c3C)nn12)C(=O)Nc1ccc(OC)cc1` (stereo not given), the survival is inactive: 96%.

As to `Cc1cccc(-n2c(CCN3C(=O)c4ccccc4C3=O)nc3ccccc3c2=O)n1`, the survival was inactive: 87%.

Take `COc1cc(C(=O)Nc2nc3c(s2)Cc2c(Br)ccc(OC)c2-3)cc(OC)c1OC`: the survival is active: 36%.

For the compound `COc1ccc(Cl)cc1NC(=O)CSc1c2c(nc3ccccc13)CCC2`, the survival was inactive: 62%.

For `CCN(c1ccccc1)S(=O)(=O)c1ccc(NC(=O)c2cc(=O)c3cc(C)ccc3o2)cc1`, the survival is inactive: 60%.

As for `O=C(c1ccc2c(c1)N(Cc1ccc(F)cc1)C(=O)c1ccccc1S2=O)N1CCOCC1` (stereo not given), the survival was inactive: 89%.

`COc1ccc(NC(=O)CS(=O)CC(=O)Nc2cccc(F)c2)cc1` (stereo not given): the survival was inactive: 98%.

Take `CC(=O)NC(Cc1cccc(C)c1)C(=O)NC1CCN(c2nc(C)cc(C)c2C#N)CC1` (stereo not given): the survival was inactive: 97%.

As to `CCOc1ccc(Cn2c(CNS(=O)(=O)c3c(C)cc(C)cc3C)nc3cccnc32)cc1`, the survival was inactive: 60%.

Consider `Cc1nnc(NC(=O)CSc2nccn2-c2ccc(Cl)cc2)s1`, for which the survival is inactive: 104%.

On to `CCC(C)n1c(SCc2ccc(C(C)(C)C)cc2)nc2ccsc2c1=O` (stereo not given), for which the survival was inactive: 81%.

As for `CCn1c(=O)sc2cc(NC(=O)c3cccc(OC)c3)ccc21`, the survival is inactive: 71%.

Regarding `COc1ccc(C2CC(=O)c3c(C)nc(N4CCN(C=O)CC4)nc3C2)c(OC)c1` (stereo not given), the survival was inactive: 77%.

With `Cc1ccc2[nH]c(=O)c(CN(C(=O)NC3CCCCC3)C3CCCCC3)cc2c1`, the survival was inactive: 80%.

As to `CCN1CCN(c2nnc(-n3cccc3C(=O)Nc3cccc(OC)c3)s2)CC1`, the survival was inactive: 105%.

As to `CCN(CC)C(=O)C1CCN(S(=O)(=O)c2ccc(C)cc2)CC1`, the survival is inactive: 102%.

Turning to `O=C(Cn1ccn(-c2ccc(F)c(F)c2)c(=O)c1=O)c1ccc(F)cc1`, the survival was inactive: 82%.

With `CCOC(=O)CC(=O)CSc1nc2ccccc2c(=O)n1-c1ccc(C(=O)NCCOC)cc1`, the survival is inactive: 102%.

Turning to `N#Cc1c(NC(=O)C(F)(F)F)oc(-c2ccccc2)c1-c1ccccc1`, the survival was active: 12%.

As to `COC(=O)c1ccc(C(=O)OC)c(NC(=O)N2CC3CCCN3c3ccccc32)c1` (stereo not given), the survival was inactive: 77%.

With `O=C(CC1NCCNC1=O)Nc1ccccc1F` (stereo not given), the survival was inactive: 99%.

For `CCOC(=O)c1c(-c2ccc(C)cc2)csc1NC(=O)c1cc(=O)c2cc(Cl)ccc2o1`, the survival was inactive: 116%.

In the case of `CCOc1ccccc1NC(=O)CSc1nc2c([nH]c3ccccc32)c(=O)n1-c1ccccc1`, the survival is inactive: 60%.

For `NC(=O)CSc1nsc(SCC(N)=O)n1`, the survival was inactive: 94%.

Turning to `O=C(CCC1CCCC1)Nc1ccc2c(c1)OCO2`, the survival was inactive: 101%.

With `Cc1ccc(OCc2nc(-c3ccc(C(=O)N4CCN(c5cc(Cl)ccc5C)CC4)cc3)oc2C)cc1`, the survival is inactive: 76%.

For `O=S(=O)(c1ccccc1)c1nc(-c2cccs2)oc1SCc1ccccc1Cl`, the survival was inactive: 60%.

Take `CCc1nn(Cc2cccc(F)c2)c(=O)c2cc3cc(C)ccc3n12`: the survival is active: 40%.

In the case of `Cc1cccc(NC2=NCC(=O)N2Cc2ccccc2)c1`, the survival is inactive: 89%.

As to `O=C(NCc1ccccc1)c1nc[nH]c1C(=O)NCc1ccccc1`, the survival is inactive: 87%.

Regarding `CCC(C)NC(=O)Cn1c(=O)n(-c2ccc(Cl)c(Cl)c2)c(=O)c2c(C)c(C(=O)N(CC)CC)sc21` (stereo not given), the survival was inactive: 58%.

`Cc1ccc(-n2ncc(C(=O)N3CCN(c4ccccn4)CC3)c2C2CCN(C(=O)OC(C)(C)C)CC2)cc1`: the survival was inactive: 81%.

Turning to `Cc1ccc(NC(=O)c2cc(S(=O)(=O)N3CCCc4ccccc43)ccc2F)cc1F`, the survival was inactive: 69%.

With `COC(=O)c1ccccc1NC(=O)Cn1c(=O)nc(-c2ccccc2)c2cc(Cl)ccc21`, the survival was inactive: 90%.

`COc1ccc(CN(C(=O)c2cc3sccc3n2C)C2CC(C)(C)NC(C)(C)C2)cc1`: the survival was inactive: 79%.

For `CCOC(=O)c1cc(-c2ccccc2)n(-c2cccc(C(=O)Nc3cccc(C)c3)c2)c1C`, the survival was inactive: 117%.

Consider `Cc1ccc2nc(COc3cccc(NC(=O)COc4ccccc4F)c3)cc(=O)n2c1`, for which the survival was inactive: 124%.

On to `O=C(C1CC1)N1CCc2cc(Br)cc(S(=O)(=O)N3CCN(c4cccc(Cl)c4)CC3)c21`, for which the survival is inactive: 62%.

With `Cc1ccc(CSc2ccc3nnc(CCNS(=O)(=O)c4ccc(C)cc4)n3n2)cc1`, the survival is inactive: 73%.

As to `Cc1cccc(OCC(=O)OCc2cc(=O)n3nc(-c4cccs4)sc3n2)c1`, the survival was inactive: 96%.
